Source: the supplement of paper PMC12067230
This is a noisy data set.

B1: library; a variant is named by its letters at X, in order (parent)
chain: EASNCFAIRHFENKFAVETLICXXXXXXXXX

Variants of: B1
Assay: amyloid nucleation score relative to library mode (yeast Sup35 reporter selection) (log enrichment difference); higher = more amyloid nucleation; sequences are the first 22 residues of the Bri2 peptide extended by up to 12 random residues
Details: random library (experiment): 3;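 active = nucleation score significantly above 0 at FDR 0.05; inactive = not significantly above 0 or absent from output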
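Note: [psi-pin-] Saccharomyces cerevisiae expressing SupN fusions, induced by 100 µM Cu2SO4, selected 7 d at 30 °C without adenine and uracil, scored by deep sequencing of output versus input.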

Variant | amyloid nucleation score
EASNCFAIRHFENKFAVETLICKHTQVSSAN | inactive
EASNCFAIRHFENKFAVETLICFIAAHDLVS | 4.71
EASNCFAIRHFENKFAVETLICNIADASSRF | 4.38
EASNCFAIRHFENKFAVETLICAIGIRWKVG | inactive
EASNCFAIRHFENKFAVETLICHIHCRADDV | 8.05
EASNCFAIRHFENKFAVETLICRIKVKLTGS | inactive
EASNCFAIRHFENKFAVETLICRILPARRLS | inactive
EASNCFAIRHFENKFAVETLICGISGKVFRY | 2.74
EASNCFAIRHFENKFAVETLICVKVVVGYCP | inactive
EASNCFAIRHFENKFAVETLICYLAHGWRYV | inactive
EASNCFAIRHFENKFAVETLICLLEESCKVC | 4.69
EASNCFAIRHFENKFAVETLICVLKSLNVHL | 3.29
EASNCFAIRHFENKFAVETLICDLLFVCCVP | 5.7
EASNCFAIRHFENKFAVETLICVLMRSESTP | inactive
EASNCFAIRHFENKFAVETLICVLRNELTCP | inactive
EASNCFAIRHFENKFAVETLICGLRYLCGPW | inactive
EASNCFAIRHFENKFAVETLICMLSRKGTRE | inactive
EASNCFAIRHFENKFAVETLICMLVECHCFM | 7.93
EASNCFAIRHFENKFAVETLICCLVIGEPAL | 7.97
EASNCFAIRHFENKFAVETLICDLVRDYRER | inactive
EASNCFAIRHFENKFAVETLICGLWLRGCGG | inactive
EASNCFAIRHFENKFAVETLICHMADHLAPL | inactive
EASNCFAIRHFENKFAVETLICQMIFVVYPV | 3.2

Variant | amyloid nucleation score
EASNCFAIRHFENKFAVETLICGMKSETHVR | inactive
EASNCFAIRHFENKFAVETLICRMRCVECGG | inactive
EASNCFAIRHFENKFAVETLICHMRGWVCGV | inactive
EASNCFAIRHFENKFAVETLICFMVKLQSTF | inactive
EASNCFAIRHFENKFAVETLICHNCRIRGHG | -0.15
EASNCFAIRHFENKFAVETLICKNHSRPSRR | inactive
EASNCFAIRHFENKFAVETLICLNSKAWEAV | 0.366
EASNCFAIRHFENKFAVETLICVNTWVCLSC | 5.17
EASNCFAIRHFENKFAVETLICAPLPEGNMR | inactive
EASNCFAIRHFENKFAVETLICAPSMVHTVI | inactive
EASNCFAIRHFENKFAVETLICVPWWDGLVR | inactive
EASNCFAIRHFENKFAVETLICAPYINPLGV | inactive
EASNCFAIRHFENKFAVETLICKQLVHFGCC | 5.17
EASNCFAIRHFENKFAVETLICIRCRHDGSR | 2
EASNCFAIRHFENKFAVETLICAREMYNRIV | inactive
EASNCFAIRHFENKFAVETLICVRGTGISIY | 0.00905
EASNCFAIRHFENKFAVETLICRRIRNGILV | inactive
EASNCFAIRHFENKFAVETLICCRKCKRDNA | 2.57
EASNCFAIRHFENKFAVETLICVRLAVVHGM | inactive
EASNCFAIRHFENKFAVETLICRRLMVCFGV | inactive
EASNCFAIRHFENKFAVETLICCRMFWYWFG | inactive
EASNCFAIRHFENKFAVETLICMRRHQYVDK | inactive
EASNCFAIRHFENKFAVETLICTRVCRSVHR | inactive

Variant | amyloid nucleation score
EASNCFAIRHFENKFAVETLICCRVSLCCEV | -0.274
EASNCFAIRHFENKFAVETLICMSAHVPRKM | 2.11
EASNCFAIRHFENKFAVETLICESFVAKRSP | 2.87
EASNCFAIRHFENKFAVETLICTSGCQREGK | -0.203
EASNCFAIRHFENKFAVETLICCSKSRYDDH | 6.91
EASNCFAIRHFENKFAVETLICHSKVQSYEV | inactive
EASNCFAIRHFENKFAVETLICVSPVRRGLQ | inactive
EASNCFAIRHFENKFAVETLICRSQVLCAKG | inactive
EASNCFAIRHFENKFAVETLICCSTLWLVMA | 4.05
EASNCFAIRHFENKFAVETLICCTAGGSRNG | 5.83
EASNCFAIRHFENKFAVETLICLTLCVRGWS | inactive
EASNCFAIRHFENKFAVETLICQTRGAYCGM | 4.78
EASNCFAIRHFENKFAVETLICLTRGPETSE | inactive
EASNCFAIRHFENKFAVETLICYVFSCCLFL | 7.17
EASNCFAIRHFENKFAVETLICAVGLYPACW | 6.59
EASNCFAIRHFENKFAVETLICIVIGWSTRV | inactive
EASNCFAIRHFENKFAVETLICRVLLEARRS | inactive
EASNCFAIRHFENKFAVETLICYVMGHARLL | inactive
EASNCFAIRHFENKFAVETLICPVNLIYLWA | 5.59
EASNCFAIRHFENKFAVETLICGVRQPSAPF | inactive
EASNCFAIRHFENKFAVETLICFVSHVLRLF | inactive
EASNCFAIRHFENKFAVETLICVVSLTVSTV | inactive
EASNCFAIRHFENKFAVETLICPVVLVLCIE | inactive
